Hit rate of the full screen: of about 48,000 compounds, about 450 (0.94%) were called active. Not shown: some 19% with an inconclusive outcome. The call rests on the fitted dose curve; in most records, active means well fitted inhibition curve with a large enough effect; inconclusive means small, poorly fitted or top-dose-only effect; inactive means no such curve, though single readings can be large or run the other way. The list shows a part of the results.
assay: Primary qHTS for Identification of Small Molecule Inhibitors of Huntingtin Promoter Activity; conditions: HEK293 HTT promoter firefly luciferase reporter (activity 0% = vehicle and -100% = no light), 24 h; series mostly up to 57.5 µM; activity change, negative = inhibition: at the top concentration; further: nearly all actives have a fitted effect of over 50% in size
In short: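 Quantitative HTS used concentration series of up to 57.5 uM final on HEK293 luciferase reporter cells, 24 h at 37 degrees C. Readout was Dual-Glo firefly luminescence.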

Structure (SMILES) | activity change, negative = inhibition
COc1ccc(OC)c(-c2noc(N3CCN(c4ccc(Cl)cc4)CC3)n2)c1 | inactive: -20.4%
Cc1ccc(S(=O)(=O)N(CCc2ccccc2)CC(=O)Nc2ccccc2C)cc1 | inactive: -33.9%
Cn1cnc(S(=O)(=O)N2CCCC(C(=O)NCc3ccc(F)cc3)C2)c1 (stereo not drawn) | inactive: -14.5%
CCOc1ccc(NC(=O)C(=O)NCCc2csc(-c3ccc(C(F)(F)F)cc3)n2)cc1 | inactive: -1.78%
NNC(=O)CP(=O)(c1ccccc1)c1ccccc1 | inactive: -6.82%
Cc1cc(C)cc(NS(=O)(=O)c2ccc3[nH]cc(C(=O)NCCc4ccccc4)c(=O)c3c2)c1 | inactive: -13.7%
Cc1nn2c(=O)cc(COC(=O)c3ccccc3NC(=O)c3cccs3)nc2s1 | inactive: -21.8%
CC(C)NC(=O)c1ccc2c(c1)N(Cc1cccc(Cl)c1)C(=O)c1ccccc1S2=O (stereo not drawn) | inactive: -13.9%
COc1ccc(NC(=O)CN2CCN(Cc3ccccc3Cl)S2(=O)=O)cc1Cl | inactive: -33.1%
COC(=O)c1sc2c(c1C)c(=O)n(-c1ccccc1)c(=O)n2CC(=O)Nc1cccc(C)c1 | inactive: -5.84%
CN1CCN(Cc2c(O)ccc3cc(-c4ccc(Cl)cc4)c(=O)oc23)CC1 | inactive: -0.649%
COc1cc(OC)c(NC(=O)N2CCC(CN3CCOCC3)CC2)cc1Cl | inactive: -8.1%
CCc1cccc(NC(=O)CCc2c(C)nc3c(-c4ccccc4)c(C)nn3c2C)c1 | inactive: -15.4%
CCN(C(=O)Cn1c(=O)oc2cc(S(=O)(=O)N3CCCCC3)ccc21)c1ccccc1 | inactive: -4.65%
COc1cccc(CNC(=O)c2c(C)oc3ncnc(N4CCOCC4)c23)c1 | inactive: -8.09%
COc1ccc(N2CCN(C(=O)C3Cc4ccccc4N3C(C)=O)CC2)cc1 (stereo not drawn) | inactive: -27.7%
Cc1cc(C)cc(N2CCn3c2nc2c3c(=O)n(C/C=C/c3ccccc3)c(=O)n2C)c1 | inactive: 0.204%
CCN(CC)CCCC(C)Nc1ccnc2cc(Cl)ccc12 (stereo not drawn) | inactive
CCOc1cc(CNC(=O)C2CCN(c3nc4ccccc4[nH]3)CC2)cc(OCC)c1OCC | inactive: -8.46%
Cc1ccc(C)c(NC(=O)CCOc2ccccc2)c1 | inactive: 13%
CS(=O)(=O)c1ccc([C@@H](O)[C@@H](CF)NC(=O)C(Cl)Cl)cc1 | inactive: -11%
Cc1ccc2nc(-c3ccc(F)cc3)c(NC(C)(C)CC(C)(C)C)n2c1 | inactive: -0.295%
Cc1c(Cl)cccc1NC(=O)CSc1ccc(-c2ccccn2)nn1 | inactive: -13.4%
O=C(Cn1c(=O)n(-c2ccc(Cl)cc2)c(=O)c2c3c(sc21)CCCCC3)Nc1cccc(Cl)c1 | inactive: -15.6%

Structure (SMILES) | activity change, negative = inhibition
O=C(NCc1cccc(Cl)c1)c1cc2c(s1)-c1ccccc1SC2 | inactive: -21.3%
Cc1ccc2cccc(NC(=O)c3cccc4c(Br)cccc34)c2n1 | inactive: -3.02%
Cc1cc(C)c2nc(N3CCCC(C(=O)NCc4ccccc4F)C3)sc2c1 (stereo not drawn) | inactive: 18.2%
CCn1c(=O)n(-c2ccc3c(c2)OCO3)c2nc(-c3cccc(OC)c3OC)nc(C(N)=O)c21 | inactive: -4.8%
CCCn1cc(S(=O)(=O)c2ccc(C)c(C)c2)c(=O)c2cc(F)c(N3CCC(C)CC3)cc21 | inactive: 1.12%
COc1ccc(N2CCN(C(=O)c3ccc4c(c3)N(Cc3cccc(Cl)c3)C(=O)c3ccccc3S4(=O)=O)CC2)cc1 | inactive: -8.78%
CC(C)OCCCNC(=O)Cc1ccc(NC(=O)N2CCCCc3ccccc32)cc1 | inactive: -14.9%
CCc1ccccc1NC(=O)Cn1c(=O)n(-c2cccc(C)c2)c(=O)c2c1c1cc(OC)ccc1n2C | inactive: 1.73%
CCOc1ccccc1N(C)C(=O)c1cc2c(s1)-c1ccccc1OC2 | inactive: -28.4%
CCOC(=O)CC(NC(=O)c1cc2c(=O)n3cccc(C)c3nc2s1)c1ccc(OCC)c(OC)c1 (stereo not drawn) | inactive: 5.88%
Cc1ccc(NC(=O)Cn2c(=O)n(CC(=O)NCCc3ccccc3)c(=O)c3ccccc32)cc1C | inactive: -2.31%
CCCCc1nc(SCC(=O)Nc2ccc(S(N)(=O)=O)cc2)n[nH]1 | inactive: -3.42%
COc1cccc(NC(=O)C2CCN(S(=O)(=O)c3c(C)noc3C)CC2)c1 | inactive: -4.9%
Cc1ccc(C(=O)COC(=O)c2cc(-c3cccs3)nc3ccccc23)cc1 | inactive: 19.2%
Cc1ccc(S(=O)(=O)c2cn(CC(=O)Nc3ccc(F)cc3)c3cc4c(cc3c2=O)OCO4)cc1 | inactive: -23.9%
CCc1nc2ccccc2n2c(-c3ccccc3)c3c(=O)n(C)c(=O)n(C)c3c12 | inactive: -8.78%
COc1ccc(-n2c(=O)c3c4c(sc3n(Cc3ccc(C)cc3C)c2=O)CCC4)c(OC)c1 | inactive: -16.5%
CCC(C(=O)Nc1ccc(C(C)=O)cc1)n1cnc2nc3c(cc2c1=O)CCCC3 (stereo not drawn) | inactive: -14.7%
COc1ccc(OC)c(CNC(=O)Cn2ncc3c([nH]c4ccc(C)cc43)c2=O)c1 | inactive: 10%
COc1cc(C(CC(=O)NCc2ccccc2)N2Cc3ccccc3C2=O)cc(OC)c1OC (stereo not drawn) | inactive: -13.5%
CC1=C(C(=O)Nc2cc(Cl)ccc2C)C2(CCCCC2)OC1=O | inactive: -16.9%
Cc1cc(C)cc(NC(=O)CCc2nnc3n(C)c(=O)c4sccc4n23)c1 | inactive: -1.25%
Cc1cc(C)n2nc(CNC(=O)c3ccccc3Cl)nc2n1 | inactive: 14.4%
CCOc1ccc(NC(=O)C2CCN(c3nc4ccccc4[nH]3)CC2)cc1 | inactive: 1.99%
